These are yes or no findings as the source states them, for the method shown. In cells and extracts the contact can be indirect. Some binding calls cover weakened binding; strength is not graded here. For some of these results: Where a sequence is shown, tags or fusion partners need not be part of it. Values belong to the binder of their own block, whether it stands above or below them.
Legend:
Test in all cases: co-IP; HEK293T cells co-transfected with FLAG-DDX3 and HA-tagged constructs (cell line not named for the ALKBH5 deletion series); cells UV cross-linked, modified RIPA lysis buffer (150 mM NaCl, 50 mM Tris pH 8.0, 1% Nonidet P-40, 0.5% deoxycholate), sonicated; antibody on Dynabeads Protein G, 2 h at 4°C; Western blot; DDX3-ALKBH5 also with or without RNase A
[1] = target: FLAG-DDX3 (full-length DDX3) (UniProt O00571)
[2] = target: ATP-binding domain of DDX3 alone (UniProt O00571)
METTL3, Q86U44 = details: remark: other sources report otherwise
FTO, Q9C0B1 = details: remark: other sources report otherwise

binding [1]: binds
binding [2]: binds
B1: DSBH domain of ALKBH5 alone (domain or fragment, UniProt Q6P6C2 191-292)
chain: VINDYQPGGCIVSHVDPIHIFERPIVSVSFFSDSALCFGCKFQFKPIRVSEPVLSLPVRRGSVTVLSGYAADEITHCIRPQDIKERRAVIILRKTRLDAPRL

binding (METTL3, Q86U44): no binding
binding (FTO, Q9C0B1): no binding
B2: FLAG-DDX3 (full-length DDX3), O00571 1-662 (protein)
chain: MSHVAVENALGLDQQFAGLDLNSSDNQSGGSTASKGRYIPPHLRNREATKGFYDKDSSGWSSSKDKDAYSSFGSRSDSRGKSSFFSDRGSGSRGRFDDRGRSDYDGIGSRGDRSGFGKFERGGNSRWCDKSDEDDWSKPLPPSERLEQELFSGGNTGINFEKYDDIPVEATGNNCPPHIESFSDVEMGEIIMGNIELTRYTRPTPVQKHAIPIIKEKRDLMACAQTGSGKTAAFLLPILSQIYSDGPGEALRAMKENGRYGRRKQYPISLVLAPTRELAVQIYEEARKFSYRSRVRPCVVYGGADIGQQIRDLERGCHLLVATPGRLVDMMERGKIGLDFCKYLVLDEADRMLDMGFEPQIRRIVEQDTMPPKGVRHTMMFSATFPKEIQMLARDFLDEYIFLAVGRVGSTSENITQKVVWVEESDKRSFLLDLLNATGKDSLTLVFVETKKGADSLEDFLYHEGYACTSIHGDRSQRDREEALHQFRSGKSPILVATAVAARGLDISNVKHVINFDLPSDIEEYVHRIGRTGRVGNLGLATSFFNERNINITKDLLDLLVEAKQEVPSWLENMAYEHHYKGSSRGRSKSSRFSGGFGARDYRQSSGASSSSFSSSRASSSRSGGGGHGSSRGFGGGGYGGFYNSDGYGGNYNSQGVDWWGN
